This is one part of the list. Where only a bound is given, the exact number is not on record here.

This assay deals with T1, Caupolican (Caup) homeodomain DNA-binding domain.
T1 sequence: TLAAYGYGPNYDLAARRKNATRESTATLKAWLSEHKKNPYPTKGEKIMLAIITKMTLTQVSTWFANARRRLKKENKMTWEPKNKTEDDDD
Briefly: PBM E-score (8-mer, recovered from the published 9-mer minima) (E-score (dimensionless, -0.5 to 0.5)); Drosophila protein; higher = stronger relative binding preference, active = 0.31 or more. An outline of the steps:
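An enrichment score, with higher meaning stronger, expresses relative binding preference for each short DNA word. The protein used was Caup's homeodomain DNA-binding domain (residues 214-303), produced by in vitro transcription and translation and tested at 100 nM on custom-designed protein binding microarrays. The 8-mer values were recovered from published 9-mer scores, each equal to the lower of its two constituent 8-mer scores.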
GAATCAAC: the “PBM E-score” value is inactive: 0.0847.
As for TACGTGCA, the figure is inactive: 0.0134; as for CACATCAA, inactive: 0.0655.
For the sequence GACTCCCA, the “PBM E-score” value was inactive: -0.0661.
In the case of GCGTTATA it was inactive: -0.0159.
As to CTTTTCCA, the “PBM E-score” value was inactive: -0.0614.
As for ACTCCGCT, the figure is not below -0.0542; as for AGTACTCG, inactive: 0.132; as for CGCCAGGC, inactive: -0.273.
As for ATCCCCCC, the figure is inactive: -0.367; as for CGTATATC, inactive: 0.00102; as for ACCGCAAC, inactive: 0.0145.
As for CGTGCCTA, the figure is inactive: -0.188.
On to CTCAGGCC, for which the “PBM E-score” value is inactive: -0.222.
Take TCAATCAA: the “PBM E-score” value is inactive: 0.127.
As for AGGTTAGA, the figure is inactive: -0.0257.
As for AGTTCACA, the figure is inactive: 0.0193; as for ACTATCAT, inactive: 0.122; as for ATGGAGTG, inactive: 0.0154.
In the case of AAGTGAAG it was inactive: -0.0115.
Turning to AAACGGCT, the “PBM E-score” value was inactive: -0.15.
With TCCTAACA, the “PBM E-score” value is not below 0.219.
Consider AGTCGATC, for which the “PBM E-score” value is inactive: -0.0276.
In the case of AGCAGGCA it was inactive: -0.125; in that of TACCACAA, not below 0.177; in that of CTTCAGCC, inactive: -0.141.
In the case of ACGTAGCG it was inactive: -0.0384; in that of ACGACAAA, inactive: 0.194; in that of AAAACACC, inactive: 0.125.
As for CACTGAAG, the figure is inactive: -0.0338; as for CGGGCCTC, inactive: -0.244.
Consider CGAGTTAA, for which the “PBM E-score” value was inactive: 0.0671.
As for AAGAGTCT, the figure is inactive: -0.0694; as for CAAGGTCG, inactive: 0.0326.
In the case of GCTGTCTA it was inactive: -0.0187.
As for CGATTCAG, the figure is inactive: -0.0377; as for CCATTAGC, inactive: -0.00206; as for AATTGGTA, inactive: 0.129.
As to AAAGAATA, the “PBM E-score” value was not below 0.148.
As for GTCCTCTA, the figure is inactive: -0.0553; as for AGACTTCA, inactive: 0.0153; as for AATAAGAA, inactive: 0.00861.
In the case of TCCCGACA it was inactive: 0.16.
As for CTTCGTGC, the figure is inactive: -0.0316; as for AGGGCGTC, inactive: -0.192.
In the case of CAACGGAC, the “PBM E-score” value is inactive: -0.0225.
In the case of ATGGGCCC it was inactive: -0.267; in that of CGCTTGCA, inactive: 0.00443; in that of CGCCGCAG, inactive: -0.303.
As for CTCCCCTA, the figure is inactive: -0.147; as for ATTTTACA, inactive: 0.305; as for ACGCCAGC, inactive: -0.231.
As for TAGCCTCA, the figure is inactive: -0.0217.
As to GGCGACTA, the “PBM E-score” value is inactive: -0.0102.
As for CTCAATCC, the figure is inactive: -0.0271; as for CATCCTGG, inactive: -0.0229.
As for TCTAGTAA, the figure is inactive: 0.152.
As for ATTACCGG, the figure is inactive: 0.0125.
Consider CGGCTCGA, for which the “PBM E-score” value was inactive: -0.0839.
For ATGGATGG, the “PBM E-score” value was inactive: -0.00742.
As for ATTACTAC, the “PBM E-score” value was inactive: 0.293.
Regarding TCGCGCCA, the “PBM E-score” value is inactive: -0.219.
Turning to TCATTAGA, the “PBM E-score” value is inactive: 0.0193.
In the case of AGACCTGG it was inactive: -0.161; in that of AGTTTCGA, inactive: -0.0587; in that of CCATTGGC, inactive: -0.124.
As for ATTAGCAG, the figure is inactive: 0.0319.
As for CGTAGGAA, the figure is inactive: 0.0374; as for ACAGCCGT, not below 0.00479.
As for AAGTTATA, the “PBM E-score” value is inactive: 0.163.
As for GGCGTATA, the figure is inactive: -0.0296; as for ACCGAACC, inactive: -0.0895; as for ATGCTAGA, inactive: 0.0809.
In the case of GATTAACA it was inactive: 0.292; in that of ACAAAGCG, inactive: -0.00979; in that of GCTAGCGA, inactive: -0.16.
As for ACGGAGAC, the figure is inactive: -0.0291.
In the case of AACTTTCC, the “PBM E-score” value is inactive: -0.108.
In the case of TACCTACA it was inactive: 0.278.
As to ACCCGAGT, the “PBM E-score” value is inactive: -0.0433.
As for ATAAGAAA, the figure is inactive: 0.133; as for ACTAACCG, inactive: 0.0241; as for TAGTCGGA, inactive: -0.014.
As for CTTACGTA, the figure is inactive: 0.0887; as for AACGAAAA, inactive: 0.0909; as for AACGAGAA, not below 0.15.
In the case of ATCGTAGA, the “PBM E-score” value was inactive: 0.0792.
In the case of TTATCGAA it was inactive: 0.0475; in that of CTAACTCC, inactive: -0.159.
In the case of CTAACCGC it was inactive: -0.0969; in that of CCGGAGAG, inactive: -0.159.
Consider GATGATCC, for which the “PBM E-score” value is inactive: -0.0978.
In the case of CTATAGAA it was inactive: 0.0358; in that of AGGTGGTG, inactive: 0.0492.
Turning to ACGGACCG, the “PBM E-score” value is inactive: -0.0951.
As for GAACTTGA, the figure is inactive: -0.0607; as for AAAAGAAG, inactive: -0.0156; as for GGTATTTA, inactive: 0.0587.
As for ATGCTTTC, the figure is inactive: 0.0403.
With AGCACATA, the “PBM E-score” value was inactive: 0.0614.
Regarding ATGATGTA, the “PBM E-score” value is active: ≥ 0.383.
As for GTTGTCGA, the “PBM E-score” value was inactive: 0.229.
In the case of GATGCACA it was inactive: -0.00178; in that of ATTTCCCC, inactive: -0.0493.
With ACTCGGGC, the “PBM E-score” value is inactive: -0.0627.
As for ATGCCTAA, the figure is inactive: -0.00683; as for GAGTGACA, inactive: 0.272.
As for GAGGACTA, the figure is inactive: -0.0051.
In the case of ATCTACCA it was not below 0.132; in that of ACCGCCTG, inactive: -0.124.
Consider CACGAACG, for which the “PBM E-score” value is inactive: 0.0257.
As for CGCTGGAG, the figure is inactive: -0.246.
For CTAACGTC, the “PBM E-score” value is inactive: -0.0189.
GACTGCGA: the “PBM E-score” value is inactive: -0.0515.
As for AACCTCCA, the figure is inactive: -0.193; as for GATGGTGA, inactive: -0.0851.
In the case of CCCACCAC it was inactive: -0.154; in that of GCGGGAAC, inactive: -0.228.
Consider CCGGGCTC, for which the “PBM E-score” value was inactive: -0.27.
In the case of ACGCCAAG it was inactive: -0.154; in that of AATAAGCA, inactive: 0.117; in that of GAACGAGC, inactive: 0.153.
In the case of AGGGTCGC it was inactive: -0.202; in that of AGGACACG, not below 0.23; in that of AATTATCA, inactive: 0.198.
With CGATTCAC, the “PBM E-score” value is inactive: 0.081.
In the case of AAGAAGCG it was inactive: -0.186; in that of AGTCTTGA, inactive: -0.00056; in that of AACTGGAC, inactive: 0.0468.
In the case of ACTGGGGA it was inactive: -0.176; in that of ATACGCAA, inactive: 0.0746.
As for GCTCTCCA, the figure is inactive: -0.0967; as for CTGACCGA, inactive: -0.14; as for AACTTTCA, inactive: -0.00477.
With AAAGGCCT, the “PBM E-score” value was inactive: -0.141.
With GCAGCGTA, the “PBM E-score” value was inactive: -0.0388.
As for AAAGAACC, the figure is inactive: -0.064; as for GCGCGTAA, inactive: -0.0325; as for ATTTAGAC, inactive: 0.058.
As for AGATGTAG, the figure is inactive: 0.244; as for CTTTTTGC, inactive: -0.135; as for AGTCACAC, inactive: 0.0486.

The values above are taken from the supplement of paper PMC3724861.
